Test results as given in the supplement of paper PMC12217912.
This is one part of the list. The full chains were built here from the parent and the listed change. Values near 0.05 are background.

B1: TEV protease; numbered along this chain (parent)
chain: MGESLFKGPRDYNPISSSICHLTNESDGHTTSLYGIGFGPFIITNKHLFRRNNGTLVVQSLHGVFKVKDTTTLQQHLVDGRDMIIIRMPKDFPPFPQKLKFREPQREERICLVTTNFQTKSMSSMVSDTSCTFPSGDGIFWKHWIQTKDGQCGSPLVSTRDGFIVGIHSASNFTNTNNYFTSVPKNFMELLTNQEAQQWVSGWRLNADSVLWGGHKVFMVKPEEPFQPVKEATQL

Variants of: B1
Assay: raw area under fraction-flipped curve 0-4 h after induction (AUC4h, not background-subtracted), DNA-recorder readout of cleavage of the substrate (dimensionless); higher = more cleavage of the substrate by the protease variant
Settings: temperature: 34 °C; time window: 0-4 h after rhamnose induction
Procedure: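 In vivo DNA recorder in E. coli TOP10(DE3) ΔrhaA at 34 °C. Each TEVp single-site mutant (parent TEVp 0) is paired with a single-site variant of the 7-mer TEVs (canonical ENLYFQ|S). The substrate sits between flexible linkers in a Bxb1-sfGFP-TEVs-SsrA fusion, so cleavage stabilises Bxb1 and speeds flipping of a recombination array, read by NGS. The value is the raw area under the fraction-flipped curve over 0-4 h after rhamnose induction (AUC4h), with ≥20 reads per time point. It is not background-subtracted; inactive controls average about 0.047.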
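Note: Bxb1 expression induced with 0.2% (w/v) L-rhamnose at OD600 near 0.5, cultures sampled hourly, flipped fraction per protease–substrate barcode pair counted by paired-end Illumina sequencing.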

Row | Variant | area with substrate ENLYFQA | area with substrate ENLYFQC | area with substrate ENLYFQE | area with substrate ENLYFQG | area with substrate ENLYFQH | area with substrate ENLYFQI | area with substrate ENLYFQK | area with substrate ENLYFQL | area with substrate ENLYFQN | area with substrate ENLYFQP | area with substrate ENLYFQR | area with substrate ENLYFQS | area with substrate ENLYFQT | area with substrate ENLYFQY | area with substrate ENLYFQF | area with substrate ENLYFQM | area with substrate ENLYFQQ | area with substrate ENLYFQV | area with substrate ENLYFQW | area with substrate ENLYFQD
1 | L61Q | 0.099 | 0.13 | 0.0789 | 0.102 | 0.0775 | 0.0578 | 0.0585 | 0.0577 | 0.0535 | 0.0556 | 0.0565 | 0.111 | 0.0619 | 0.0635 | – | – | – | – | – | –
2 | H62C | 0.0902 | 0.098 | – | 0.0935 | 0.0519 | 0.0621 | 0.0547 | 0.0698 | 0.0727 | – | 0.0572 | 0.103 | 0.061 | 0.0933 | 0.0766 | 0.0778 | 0.0653 | 0.0661 | 0.0704 | –
3 | G63K | 0.0918 | 0.11 | – | – | – | – | – | 0.0527 | – | 0.0268 | – | 0.0954 | – | – | – | 0.101 | – | 0.0622 | 0.076 | –
4 | V64S | 0.0978 | – | – | – | 0.0747 | 0.0602 | – | – | 0.0794 | – | 0.0642 | 0.11 | 0.0425 | – | – | 0.102 | – | – | 0.0622 | –
5 | F65S | 0.119 | – | – | – | 0.0642 | 0.0568 | – | 0.0651 | – | 0.0734 | 0.0314 | 0.0924 | 0.0607 | 0.0817 | – | 0.0415 | – | 0.125 | – | 0.0523
6 | F65Y | 0.13 | 0.0553 | – | 0.0897 | 0.092 | 0.0687 | – | 0.0592 | 0.084 | 0.0548 | 0.0618 | 0.103 | 0.0688 | – | – | 0.0829 | 0.0745 | 0.0571 | 0.0616 | –
7 | K66T | 0.0543 | 0.176 | – | – | 0.0717 | – | 0.058 | 0.0665 | 0.0576 | – | 0.0574 | 0.108 | 0.066 | 0.0858 | – | 0.0872 | 0.0682 | – | – | –
8 | D69M | 0.0805 | 0.116 | – | 0.0779 | – | 0.0531 | – | 0.0669 | 0.0627 | 0.063 | 0.0633 | 0.085 | – | 0.0708 | 0.0676 | – | 0.0846 | 0.0492 | 0.0549 | –
9 | T70M | 0.0856 | 0.156 | – | – | – | – | 0.0596 | 0.0573 | 0.0819 | – | 0.0755 | 0.0963 | – | – | – | – | – | – | – | –
10 | T70V | 0.0784 | 0.0853 | – | – | 0.0636 | 0.0564 | 0.0588 | 0.0544 | 0.0652 | – | 0.0643 | 0.0755 | 0.0685 | 0.0641 | 0.0565 | 0.0683 | 0.0671 | 0.0599 | 0.0604 | –
11 | T71D | 0.0646 | 0.0868 | – | – | – | – | – | – | – | 0.0517 | – | 0.0816 | 0.0647 | 0.0731 | – | – | – | – | 0.0588 | 0.0585
12 | T72Y | 0.0771 | 0.0966 | – | 0.141 | 0.0807 | 0.0483 | 0.0735 | – | 0.0676 | – | 0.0568 | 0.0898 | – | 0.0842 | – | – | – | – | – | 0.108
13 | Q75H | 0.0748 | 0.054 | 0.0552 | 0.0659 | 0.0586 | 0.0559 | – | 0.0513 | 0.0571 | 0.0693 | 0.0594 | 0.0758 | 0.0675 | 0.0652 | – | – | – | 0.0599 | 0.0689 | 0.0741
14 | Q75T | 0.0974 | 0.13 | – | – | – | 0.0545 | – | 0.0768 | 0.08 | – | 0.0527 | 0.101 | – | 0.0635 | – | 0.104 | – | – | – | –
